# PubChem BioAssay AID504333 (National Center for Advancing Translational Sciences (NCATS), 2011)
# The campaign covered roughly 360,000 compounds. About 16,000 (4.4%) were called active. The shares of active, inactive and inconclusive entries below differ from those in the screen. The call rests on the fitted dose curve; in most records, active means well fitted inhibition curve with a large enough effect; inconclusive means small, poorly fitted or top-dose-only effect; inactive means no such curve, though single readings can be large or run the other way. Potencies beside an inconclusive call are fits to weak or partial responses and may not hold up.
# Molecular target: Bromodomain adjacent to zinc finger domain protein 2B (Homo sapiens) (UniProt Q9UIF8)
# UniProt Q9UIF8, sequence (Q9UIF8 whole entry, looked up, the tested form may be a part): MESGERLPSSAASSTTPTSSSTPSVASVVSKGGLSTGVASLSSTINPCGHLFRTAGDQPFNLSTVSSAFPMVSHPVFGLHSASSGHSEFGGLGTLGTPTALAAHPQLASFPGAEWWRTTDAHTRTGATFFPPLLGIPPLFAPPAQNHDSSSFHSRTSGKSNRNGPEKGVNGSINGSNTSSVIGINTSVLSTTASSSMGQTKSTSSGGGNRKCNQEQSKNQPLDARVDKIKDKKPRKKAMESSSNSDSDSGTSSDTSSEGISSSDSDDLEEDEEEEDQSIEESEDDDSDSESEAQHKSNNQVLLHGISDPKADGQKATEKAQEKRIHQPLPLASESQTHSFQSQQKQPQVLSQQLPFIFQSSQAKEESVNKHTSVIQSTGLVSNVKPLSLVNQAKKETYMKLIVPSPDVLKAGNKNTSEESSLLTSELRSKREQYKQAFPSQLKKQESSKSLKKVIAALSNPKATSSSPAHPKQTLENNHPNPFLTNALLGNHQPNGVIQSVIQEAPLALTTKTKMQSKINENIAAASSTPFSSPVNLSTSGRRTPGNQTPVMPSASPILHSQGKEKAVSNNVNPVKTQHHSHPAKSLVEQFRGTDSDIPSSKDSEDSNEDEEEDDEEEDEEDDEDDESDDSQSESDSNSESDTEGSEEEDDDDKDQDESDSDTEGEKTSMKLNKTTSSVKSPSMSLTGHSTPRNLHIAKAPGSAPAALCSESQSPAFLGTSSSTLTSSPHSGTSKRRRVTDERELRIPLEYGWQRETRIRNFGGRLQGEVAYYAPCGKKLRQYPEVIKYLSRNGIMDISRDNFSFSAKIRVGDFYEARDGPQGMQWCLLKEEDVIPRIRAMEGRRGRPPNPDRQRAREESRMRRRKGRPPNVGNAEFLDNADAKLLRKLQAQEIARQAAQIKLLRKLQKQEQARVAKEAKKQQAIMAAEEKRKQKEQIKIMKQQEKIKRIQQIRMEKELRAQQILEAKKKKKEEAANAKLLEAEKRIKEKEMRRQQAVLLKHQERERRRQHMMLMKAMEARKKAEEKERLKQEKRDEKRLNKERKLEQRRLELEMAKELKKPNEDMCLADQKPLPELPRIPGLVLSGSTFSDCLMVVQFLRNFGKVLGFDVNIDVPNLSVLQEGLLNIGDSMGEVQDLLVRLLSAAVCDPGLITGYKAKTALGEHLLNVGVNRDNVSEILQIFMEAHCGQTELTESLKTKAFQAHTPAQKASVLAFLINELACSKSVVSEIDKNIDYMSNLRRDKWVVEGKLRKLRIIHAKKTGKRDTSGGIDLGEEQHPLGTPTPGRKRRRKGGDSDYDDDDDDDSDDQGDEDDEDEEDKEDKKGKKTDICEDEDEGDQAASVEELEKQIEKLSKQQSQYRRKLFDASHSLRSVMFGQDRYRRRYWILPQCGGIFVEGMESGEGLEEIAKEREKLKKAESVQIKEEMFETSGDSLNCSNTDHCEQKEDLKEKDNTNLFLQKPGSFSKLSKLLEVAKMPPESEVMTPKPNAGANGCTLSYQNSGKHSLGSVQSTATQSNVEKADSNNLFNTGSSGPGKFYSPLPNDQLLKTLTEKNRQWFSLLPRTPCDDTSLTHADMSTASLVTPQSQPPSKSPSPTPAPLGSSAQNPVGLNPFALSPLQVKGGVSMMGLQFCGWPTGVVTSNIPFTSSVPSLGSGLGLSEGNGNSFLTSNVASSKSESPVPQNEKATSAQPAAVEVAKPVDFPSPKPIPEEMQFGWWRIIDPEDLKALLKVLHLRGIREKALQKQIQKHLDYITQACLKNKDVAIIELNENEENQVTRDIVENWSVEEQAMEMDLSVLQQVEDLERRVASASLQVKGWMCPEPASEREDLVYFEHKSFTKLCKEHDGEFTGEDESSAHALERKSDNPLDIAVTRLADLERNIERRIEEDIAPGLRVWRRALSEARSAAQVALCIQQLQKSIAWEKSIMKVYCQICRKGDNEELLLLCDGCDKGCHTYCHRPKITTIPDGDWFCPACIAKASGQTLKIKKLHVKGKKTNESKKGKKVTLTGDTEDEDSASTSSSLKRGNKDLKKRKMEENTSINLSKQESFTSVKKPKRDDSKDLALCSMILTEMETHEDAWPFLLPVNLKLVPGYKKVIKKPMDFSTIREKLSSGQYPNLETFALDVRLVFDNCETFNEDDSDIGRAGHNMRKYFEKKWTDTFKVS
# Assay: qHTS Assay for Inhibitors of BAZ2B; further: nearly all actives have a fitted effect of over 60% in size
# Conditions: AlphaScreen BAZ2B-H3K14Ac peptide displacement; activity change, negative = inhibition: at 114 µM (top of the series) unless noted
# Outline: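 Inhibition is scored as reduced AlphaScreen emission. The BAZ2B/b-H3(5-23)K14Ac complex (50 nM each) in PBS pH 7.4, 0.01% Tween-20 meets compound (up to 110 uM) for 30 min at RT before bead addition.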
# On the % scale 0 is the no-effect control and ±100 the full control effect; potency means the concentration at half of the fitted maximal effect; tags describe the fitted curve by direction and shape.
Compound,Potency,"activity change, negative = inhibition"
CNC(=O)c1[nH]cnc1C(=O)Nc1ccccn1,active: 56.2 µM,–
COc1ccc(OC)c(N(C)S(=O)(=O)c2ccc3c(c2)N(C(C)=O)CCO3)c1,–,inactive: -13.4%
Cc1nn(Cc2cccc(Oc3ccccc3)c2)c(C)c1NC(=O)NC12CC3CC(CC(C3)C1)C2,–,inactive: 4.53%
COc1ccc(C(=O)COC(=O)c2ccccc2NS(=O)(=O)c2ccc(O)c([N+](=O)[O-])c2)cc1,active: 56.2 µM,–
COc1ccc(-n2cc(-c3ccc4c(c3)OCO4)n(CC(=O)Nc3cc(Cl)ccc3C)c2=O)cc1,active: 89.1 µM,–
CC(=O)Nc1cccc(C(=O)OC(C(=O)c2ccc(C)cc2)c2ccccc2)c1 (configuration not stated),"inconclusive: 56.2 µM [inhibitor, partial curve]",–
Oc1ccccc1Cc1c(O)ccc2ccccc12,–,inactive: -2.05%
O=C(CSc1ccc(Cl)cc1)Nc1cccc(-c2nnc(-c3ccco3)o2)c1,–,inactive: 0.493%
Cc1ccccc1OCC(=O)Nc1ccc2c(c1)OCO2,–,inactive: -4.96%
CN1CCN(c2ccc(NC(=O)c3ccc(-c4ccc(Br)cc4)o3)cc2)CC1,active: 25.1 µM,–
Cc1cc([N+](=O)[O-])ccc1NC(=O)C[n+]1ccc(N(C)C)cc1,–,inactive: -17.2%
CCOC(=O)c1cnc2c(ccc3ccccc32)c1Nc1cccc(Cl)c1,–,inactive: -7.01%
NS(=O)(=O)c1ccc(CCNCC#Cc2ccccc2)cc1,"inconclusive: 89.1 µM [inhibitor, single point]",–
COc1ccc(CCNC(=O)c2cnc3sc(N4CCOCC4)nn3c2=O)cc1,–,inactive: -3.86%
Clc1ccc(C2[C@H]3CN(Cc4cccnc4)[C@H](c4ccccc4)C34CC2(c2ccccc2)C4)cn1 (some centres not stated),"inconclusive: 79.4 µM [inhibitor, single point]",–
Nc1cc(-c2ccc(Cl)cc2)nn1-c1ccccc1,"inconclusive: 22.4 µM [inhibitor, full curve]",–
O=C(Cc1cnc2ncnn2c1)N1CCc2c([nH]c3ccccc23)C1c1ccccn1 (configuration not stated),"inconclusive: 35.5 µM [inhibitor, full curve]",–
C=CCn1c(CNC(=O)c2ccco2)nnc1SCC(=O)Nc1cccc(F)c1,"inconclusive: 79.4 µM [inhibitor, single point]",–
CCC(=O)NC(c1ccc(C)cc1)c1ccc2cccnc2c1O (configuration not stated),active: 22.4 µM,–

Compound,Potency,"activity change, negative = inhibition"
CCCCOc1ccc(S(=O)(=O)N2CCN(c3ccc(N4CCN(CC)CC4)nn3)CC2)cc1,–,inactive: -4.14%
CC1CCN(c2oc(-c3cccs3)nc2S(=O)(=O)c2ccccc2)CC1,"inconclusive: 31.6 µM [inhibitor, partial curve]",–
CC(/C=C1\SC(=S)N(C(C(=O)O)c2ccccc2)C1=O)=C\c1ccccc1 (configuration not stated),"inconclusive: 79.4 µM [inhibitor, partial curve]",–
CC1CCCN(C(=O)COc2ccc(NC(=O)c3cccs3)cc2)C1 (configuration not stated),"inconclusive: 56.2 µM [inhibitor, partial curve]",–
CCN(CCCNC(=O)c1cc2c(=O)n(CC)c3ccccc3c2s1)Cc1ccccc1,"inconclusive: 56.2 µM [inhibitor, partial curve]",–
CN(C(=O)CSc1nnc(C2CC2)n1C1CC1)C1(C#N)CCCCC1,–,inactive: 5.58%
Cc1nn(Cc2ccccc2)c2c1C(c1cccc(Cl)c1)C(C#N)=C(N)O2 (configuration not stated),"inconclusive: 70.8 µM [inhibitor, single point]",–
COc1cccc(NC(=O)c2ccc(CN3CCN(c4ccccc4)CC3)cc2)c1,"inconclusive: 39.8 µM [inhibitor, full curve]",–
N#C/C(=C/c1ccc2c(c1)OCO2)C(=O)Nc1ccc(O)cc1,"inconclusive: 100 µM [inhibitor, partial curve, poor fit]",–
CCOc1c(Br)cc(C2CC(=O)Nc3cc(OC)c(OC)cc32)cc1OC (configuration not stated),"inconclusive: 35.5 µM [inhibitor, partial curve]",–
CC(=O)c1cccc(NC(=O)CN2CCN(Cc3ccccc3)CC2)c1,"inconclusive: 79.4 µM [inhibitor, partial curve]",–
O=C(Nc1nc2c(s1)CN(Cc1ccccc1)CC2)C1CCCC1,"inconclusive: 70.8 µM [inhibitor, single point]",–
CCCCc1cc(C(=O)Cc2ccccn2)c(O)cc1O,–,inactive: -17.7%
COc1cccc(CC2(CO)CCCN(Cc3ccc(-c4ccco4)cc3)C2)c1 (configuration not stated),"inconclusive: 50.1 µM [inhibitor, partial curve]",–
Cc1ccc(S(=O)(=O)NNC(=O)c2snnc2C)cc1,–,inactive: 1.62%
COc1cccc(CN2C(=O)C(C)N(C(=O)c3ccccc3)c3ccccc32)c1 (configuration not stated),–,inactive: -0.129%
CN1CCN(C(=O)C2CCCN(S(=O)(=O)c3ccc(F)cc3)C2)CC1 (configuration not stated),active: 31.6 µM,–
CCOc1cc(C2C(C#N)=C(N)OC(C)=C2C(C)=O)cc(Br)c1O (configuration not stated),"inconclusive: 50.1 µM [inhibitor, partial curve]",–
